The source gives no read counts; variants with many changes may rest on few reads.
B1: CPEB3 Ribozyme (parent)
chain: UAACAGGGGGCCACAGCAGAAGCGUUCACGUCGCAGCCCCUGUCAGAUUCUGGUGAAUCUGCGAAUUCUGCUGUAUAUCUC

Variants of: B1
Assay: self-cleavage, relative activity (ratio to wild type); higher = more cleavage; in vitro, sequencing
Method in brief: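 Barcoded CPEB3 ribozyme mutants, produced by rounds of error-prone PCR, self-cleaved while being transcribed with T7 RNA polymerase for 5 hours at 37°C and during a subsequent 15 min DNase I step before EDTA was added. Sequencing of template-switched cDNA on Illumina gave cleaved and total reads, and DNA sequencing assigned barcodes to variants. Each variant's relative activity is its cleaved/total read fraction divided by the unmutated ribozyme's fraction, averaged across three batches. A variant needed a minimum of 5 reads.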
A13U U25C C62U U66C showed a self-cleavage of 0.13. A13U U25C U51C U66C G70A showed a self-cleavage of 0.09. A13U U26C U54A U78C showed a self-cleavage of 0.4. For A13U U25A U26C A35U U54G, the self-cleavage was 0.13. With A13U U26A A28U A45G the self-cleavage was 0.47. For A13U C27U A28G U41C A57G U60C A75U, the self-cleavage was 0.05. In the case of A13U G33U A45C A56G U72C A75G, the self-cleavage is reported as 0.08. With A13U C38U G61A U72C C79A the self-cleavage was 0.87. Variant A13U G19A A56G U69A U72C has a self-cleavage of 0.11. In the case of A13U U31C C79A, the self-cleavage is reported as 1.06. Variant A13U U31A U51A A57U has a self-cleavage of 0.12. In the case of A13U U41A U48C U80C, the self-cleavage is reported as 0.07. With A13U U41A C44U A65G the self-cleavage was 0.14. Work on A13U U25C A65G yielded a self-cleavage of 0.14. With A13U U26A U43G A45U the self-cleavage was 0.18. For A13U U26C U41A U54C A56U, the self-cleavage was 0.15. A13U U25C U31C U60C gave a self-cleavage of 0.36. A13U C27A U54C U58C A77U showed a self-cleavage of 0.05. A13U U25C U51C U67C G70A showed a self-cleavage of 0.08. Work on A13U U26A U69A yielded a self-cleavage of 0.51. A13U G33A A45U A56C A57G U67A gave a self-cleavage of 0.14. For A13U C29U U31C U49A U69A, the self-cleavage was 0.23. With A13U A47G U58C the self-cleavage was 1.23. Variant A13U G19U U72A has a self-cleavage of 0.2. In the case of A13U A56G U67A, the self-cleavage is reported as 0.58. With A13U U25C A35G A57U the self-cleavage was 0.56. A13U U26C G30A A64U U74A gave a self-cleavage of 0.13. A13U U26C U76C gave a self-cleavage of 0.62. A13U C39U G73A U74C U80C gave a self-cleavage of 1.24. A13U U25C U41C C62U U78C gave a self-cleavage of 0.03. A13U C29U U43C U48A A56G showed a self-cleavage of 0.08. Variant A13U U41A U48A has a self-cleavage of 0.2. For A13U U26A A57G U67C, the self-cleavage was 0.3. For A13U U31A A56G, the self-cleavage was 0.2. A13U G33A A45G showed a self-cleavage of 0.1. A13U G16A G33A U51C gave a self-cleavage of 0.04. In the case of A13U U26G U80A, the self-cleavage is reported as 0.57. Variant A13U U25C U41C A47G has a self-cleavage of 0.23. Variant A13U A45G A47G A64G has a self-cleavage of 0.25. For A13U U26A C40U A47G U48C U51G U76G, the self-cleavage was 0.04. For A13U A47C U51G A57G, the self-cleavage was 0.21. Work on A13U G24A C68G U72C yielded a self-cleavage of 0.08. A13U G73U U76C showed a self-cleavage of 1.3. Work on A13U U25C U54C yielded a self-cleavage of 0.1. In the case of A13U A47G G70A A77G, the self-cleavage is reported as 0.67. Variant A13U U31A C37U has a self-cleavage of 0.47. A13U A45G U48A U78C showed a self-cleavage of 0.18. With A13U A47G U69A U72C the self-cleavage was 0.49. In the case of A13U G73A U78C, the self-cleavage is reported as 1.34. In the case of A13U U25C G33A G36A U78A, the self-cleavage is reported as 0.06. A13U U26C A45U U48C showed a self-cleavage of 0.08. With A13U A45C A65G the self-cleavage was 0.2. In the case of A13U C14A G33C U48C A57G U66A U74C, the self-cleavage is reported as 0.04. Variant A13U A45U U69C has a self-cleavage of 0.25. A13U A45G U54G gave a self-cleavage of 0.79. Variant A13U C14U A18C G61A U69A A77G has a self-cleavage of 0.17. With A13U U26C A47G U76C the self-cleavage was 0.58. A13U A45U U78A gave a self-cleavage of 0.6. For A13U U25A U49A A56U U58C A77G, the self-cleavage was 0.14. A13U A65G G70C U80A showed a self-cleavage of 0.21. For A13U A64G U69C, the self-cleavage was 0.28. Work on A13U A45G A57G U60C yielded a self-cleavage of 1.06. For A13U G22A U41G A47G, the self-cleavage was 0.09. In the case of A13U C14A U54C U72A A75G, the self-cleavage is reported as 1.12. Variant A13U A64C A65U has a self-cleavage of 0.22. A13U C14U U54C C62U gave a self-cleavage of 0.08. With A13U A35U A45U the self-cleavage was 0.19. With A13U C14G A21G A47G the self-cleavage was 0.09. A13U U25C A45G gave a self-cleavage of 0.23. For A13U U25C A45U, the self-cleavage was 0.22. Variant A13U U26G A64G U69A G70C U72A has a self-cleavage of 0.14. With A13U A47G U54G U76C the self-cleavage was 1.12. Work on A13U C39U U72A U76A yielded a self-cleavage of 0.79. With A13U C39A A57G U80C the self-cleavage was 0.21. A13U U26A C38U A57G A64G U74A U78C gave a self-cleavage of 0.06. For A13U A45G A65G U72A, the self-cleavage was 0.26. For A13U C44U A47G, the self-cleavage was 0.28. For A13U C40U G73A, the self-cleavage was 0.5. A13U U31G A47G U49A gave a self-cleavage of 0.19. A13U G24C C38U U41A U48C U69C gave a self-cleavage of 0.05. Variant A13U C29U C40U has a self-cleavage of 0.21. In the case of A13U U25G U41C A56G U72C, the self-cleavage is reported as 0.09. A13U U26C U31C gave a self-cleavage of 0.18. A13U U31A U49A gave a self-cleavage of 0.62. Variant A13U U26C U58G has a self-cleavage of 0.53. A13U C44U U54A U80A showed a self-cleavage of 0.41. In the case of A13U C29U U69A U72A, the self-cleavage is reported as 0.08. Work on A13U A45G U51C U60C yielded a self-cleavage of 1.25. A13U A64G U78C gave a self-cleavage of 0.94. A13U A75C U78A gave a self-cleavage of 1.26. A13U U31C A56U U60C A64G gave a self-cleavage of 0.11. A13U U31A A65U U66C gave a self-cleavage of 0.09. With A13U U25A A56U the self-cleavage was 0.15. In the case of A13U A45G U67A U76C, the self-cleavage is reported as 0.73. In the case of A13U A57G U76A, the self-cleavage is reported as 1.15. For A13U A35U U54G A75U, the self-cleavage was 0.66. For A13U C14U A28G A75C, the self-cleavage was 0.79. With A13U C62U A65G the self-cleavage was 0.32. Variant A13U G16C A65U U69C U80C has a self-cleavage of 0.05. In the case of A13U A64G U67C, the self-cleavage is reported as 0.32. A13U U25C U72A showed a self-cleavage of 0.09. A13U A56G U58C C71U gave a self-cleavage of 0.25. Work on A13U C29U U41C U74A yielded a self-cleavage of 1.01. A13U U25A U51C U60A U66C gave a self-cleavage of 0.31. A13U U25C U41C U43C A45U A57G gave a self-cleavage of 0.22. For A13U G36C U78C, the self-cleavage was 0.07. A13U U25C U26C U72C showed a self-cleavage of 0.15. For A13U A56U U60A A75G U80C, the self-cleavage was 0.37. A13U A45G U66C gave a self-cleavage of 0.26. With A13U U26A U76C the self-cleavage was 1.17. With A13U C23G A47G U58C U80C the self-cleavage was 0.04. Variant A13U A45G U48A U60A has a self-cleavage of 0.06. Variant A13U A45G A57G A64G has a self-cleavage of 0.62. In the case of A13U U26A A28C U80A, the self-cleavage is reported as 0.51. Variant A13U C23A C38G U51C A77G has a self-cleavage of 0.04. With A13U U25C U60A U74C U78C the self-cleavage was 0.28. For A13U A64U U78C, the self-cleavage was 0.43. In the case of A13U A45G A65G, the self-cleavage is reported as 0.39. A13U U26C U51C showed a self-cleavage of 0.45. Variant A13U G16U U43C G52U A56G U80C has a self-cleavage of 0.46. With A13U U41A A64G A65U U74C the self-cleavage was 0.13. A13U U31C U74C showed a self-cleavage of 1.23. In the case of A13U C29U A35G C38A U51G A77U, the self-cleavage is reported as 0.54. In the case of A13U G36A U49C U60A A77U, the self-cleavage is reported as 0.06. With A13U A56U A64G the self-cleavage was 0.2. With A13U U25A U54C A65G the self-cleavage was 0.11. A13U C38U U41G U60A U72G showed a self-cleavage of 0.04. For A13U A64G U66C, the self-cleavage was 0.2. In the case of A13U C37G G70C C71U, the self-cleavage is reported as 0.12. In the case of A13U U31A U49A U78A, the self-cleavage is reported as 0.41. For A13U C29U U41C U43C A56U U72C, the self-cleavage was 0.05. Work on A13U A57G U78A yielded a self-cleavage of 1.1. Work on A13U U25C U43C U48A yielded a self-cleavage of 0.05. Variant A13U U26C A57G U58C has a self-cleavage of 0.08. A13U C29G C37U A64G A77G gave a self-cleavage of 0.03. In the case of A13U G30A U31C, the self-cleavage is reported as 0.2. Variant A13U G19A G52U A57G has a self-cleavage of 0.3. Variant A13U C38A U41A A56G has a self-cleavage of 0.16. A13U G22U A47G U51G gave a self-cleavage of 0.21. In the case of A13U U31A C32U A35C A64G, the self-cleavage is reported as 0.19. In the case of A13U G16C A28G A35G, the self-cleavage is reported as 0.14. A13U U31C A35U U60G gave a self-cleavage of 0.09. With A13U U25A U41C U43A G73A the self-cleavage was 0.1. In the case of A13U C23G G30U U60A G63A A64G, the self-cleavage is reported as 0.03. With A13U U26C C29U U41C A45G U74C the self-cleavage was 0.16. A13U G36C U41A U54A U67C gave a self-cleavage of 0.06. For A13U G19C U26A A47U U51C A56G, the self-cleavage was 0.06. Work on A13U G16C A20U G33A U60C U69A yielded a self-cleavage of 0.04. A13U G19A U51A gave a self-cleavage of 0.14. For A13U U31A U51C A77U, the self-cleavage was 0.18. In the case of A13U A35U U41C U67C U69A U72G, the self-cleavage is reported as 0.16. In the case of A13U U26C U51C U60C, the self-cleavage is reported as 0.23. Variant A13U U31C G63A A65G has a self-cleavage of 0.47. Work on A13U C32G A65G yielded a self-cleavage of 0.08. In the case of A13U G53U U54C, the self-cleavage is reported as 1.16. Variant A13U C17A U31C U60A has a self-cleavage of 0.12. Variant A13U G24A U54C has a self-cleavage of 0.26. In the case of A13U A47G U48A A56C U72C U76A, the self-cleavage is reported as 0.1. A13U A45U U60C U67C gave a self-cleavage of 0.22. Work on A13U U25C C27A A65G yielded a self-cleavage of 0.07. With A13U U25C A45G A56G the self-cleavage was 0.24. Work on A13U C29A A45G U60C U72C U80A yielded a self-cleavage of 0.3. With A13U A56G U60C the self-cleavage was 0.48. For A13U G19A G52U, the self-cleavage was 0.18. Work on A13U U26C U60A U72C C79A yielded a self-cleavage of 0.06. With A13U U25A U54A U60G U66C the self-cleavage was 0.14. In the case of A13U C23A C27A C39A, the self-cleavage is reported as 0.13.
